{"source": "PubChem BioAssay AID485344", "about": "(National Center for Advancing Translational Sciences (NCATS), 2010)", "note": "About 6,900 (2%) of roughly 340,000 compounds were called active. Cut-off read from the data, not from the text of the source: active = inhibition above about 30%; inactive = below that, where a call was filed. Only a part is listed here, and it is no random draw. Entries without a call were filed so in the source.", "data": [{"molecular_target": "D(2) dopamine receptor (Homo sapiens) (UniProt P14416)", "sequence (P14416 whole entry, looked up)": "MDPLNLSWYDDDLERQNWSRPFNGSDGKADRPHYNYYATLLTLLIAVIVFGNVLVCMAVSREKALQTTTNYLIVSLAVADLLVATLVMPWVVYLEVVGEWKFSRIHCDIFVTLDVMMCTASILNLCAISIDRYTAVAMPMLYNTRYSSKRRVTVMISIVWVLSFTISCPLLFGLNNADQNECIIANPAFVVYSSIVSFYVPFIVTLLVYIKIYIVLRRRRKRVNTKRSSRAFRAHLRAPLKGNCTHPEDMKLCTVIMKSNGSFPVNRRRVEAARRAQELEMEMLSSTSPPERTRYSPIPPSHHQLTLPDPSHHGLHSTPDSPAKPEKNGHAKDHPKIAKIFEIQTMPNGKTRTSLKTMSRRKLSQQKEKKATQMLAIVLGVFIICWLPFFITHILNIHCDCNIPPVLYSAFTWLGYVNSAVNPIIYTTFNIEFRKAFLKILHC", "assay": "HTS Assay for Allosteric Antagonists of the Human D2 Dopamine Receptor: Primary Screen for Antagonists; note: 0% is about no effect", "conditions": "HEK293 TREx D2 cells, calcium flux, dopamine EC80; at 10 µM; stronger effect = higher value", "how_it_was_run": "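HEK293 T-REx D2 cells, tet-induced, calcium dye no-wash. Cpd pintool add, 180 s kinetic, then EC80 DA, 180 s kinetic. Ca flux read.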", "values": [{"smiles": "Cc1cc(F)ccc1NC(=O)CCS(=O)(=O)c1cccc2nsnc12", "inhibition": "-12.7%"}, {"smiles": "CC(=O)c1[nH]c(C)c(C(=O)NCc2ccc(Cl)cc2)c1C", "inhibition": "19.8%"}, {"smiles": "O=C(Nc1ccc2oc(-c3cccc4c(Br)cccc34)nc2c1)c1ccc(Br)cc1", "inhibition": "-12.2%"}, {"smiles": "O=C(c1ccco1)N1CCN(Cc2cccnc2)CC1", "inhibition": "active: 31.2%"}, {"smiles": "Cc1cccc(-n2nnc(-c3nc(-c4cccs4)no3)c2N)c1C", "inhibition": "-12%"}, {"smiles": "Cc1ccccc1CNC(=O)CCCn1ncn2c(cc3occc32)c1=O", "inhibition": "4.45%"}, {"smiles": "O=C1C2=C(Nc3ccccc3SC2c2ccc(C(F)(F)F)cc2)c2ccccc21", "note": "(stereo not drawn)", "inhibition": "10.8%"}, {"smiles": "COc1ccc(NC(=O)CSC2=Nc3ccccc3C3=NC(Cc4ccccc4)C(=O)N23)cc1", "note": "(stereo not drawn)", "inhibition": "-3.3%"}, {"smiles": "COc1ccc(NC(=O)c2c(NC(=O)c3cccc(C)c3)sc3c2CCC3)cc1", "inhibition": "-11.1%"}, {"smiles": "COc1ccccc1Nc1ncc2c(n1)CCN(CC(C)C)C2", "inhibition": "-24.4%"}, {"smiles": "COc1ccc(-c2nc3ccccc3o2)cc1NC(=O)c1ccc(-c2ccc(C)c(Cl)c2)o1", "inhibition": "-0.152%"}, {"smiles": "O=C(Nc1ccc(Cl)cc1)c1ccc2ncsc2c1", "inhibition": "active: 40.1%"}, {"smiles": "CCN(C(=O)c1cc2c(=O)oc3ccccc3c2s1)c1cccc(C(F)(F)F)c1", "inhibition": "13.5%"}, {"smiles": "Cc1ccc(Nc2c(-c3ccco3)nc3ccc(C)cn23)cc1", "inhibition": "-3.03%"}, {"smiles": "CCOc1ccc(OCC)c(Nc2nc3ccccc3n3nnnc23)c1", "inhibition": "-4.37%"}, {"smiles": "CCn1c(=O)c2sccc2n2c(CCCC(=O)Nc3ccc(C)cc3)nnc12", "inhibition": "13.2%"}, {"smiles": "COc1cc(NC(=O)c2c(C)nn(-c3ccc(F)cc3)c2-n2cccc2)cc(OC)c1", "inhibition": "-5.64%"}, {"smiles": "COc1ccc(-n2nnnc2C2CCN(S(=O)(=O)c3cc(Cl)ccc3OC)CC2)cc1", "inhibition": "3.58%"}, {"smiles": "Cc1ccc(N2CCN(c3ncnc4onc(-c5ccc(F)cc5)c34)CC2)c(C)c1", "inhibition": "-12.5%"}, {"smiles": "Cc1ccc(S(=O)(=O)NCCc2nnc3ccc(SCc4cccc(F)c4)nn23)cc1", "inhibition": "1.6%"}, {"smiles": "COc1ccc(NC(=O)C2CCN(c3nc4ccccc4[nH]3)CC2)cc1OC", "inhibition": "9.76%"}, {"smiles": "Cc1ccc(NC(=O)CSc2nnc(C)s2)c(C)c1", "inhibition": "3.42%"}, {"smiles": "COc1ccccc1/C=C/CN1CCC(Oc2ccc(C(=O)N3CCCCC3)cc2)CC1", "inhibition": "active: 68.6%"}, {"smiles": "COc1ccc(-c2nc(SCC(=O)NCc3nc4ccccc4n3C)n3[nH]c(=O)cc3n2)cc1", "inhibition": "-5.5%"}, {"smiles": "CCCCN1C(=O)C(NC(=O)c2ccc(C(C)(C)C)cc2)(C(F)(F)F)C(C(=O)OC)=C1C", "note": "(stereo not drawn)", "inhibition": "-3.64%"}, {"smiles": "c1ccc(OCCOCCN2CCc3ccccc3C2)cc1", "inhibition": "active: 64.9%"}, {"smiles": "Cc1cc(O)c(C(c2ccc(F)cc2)N2CCN(c3ccccc3)CC2)c(=O)n1Cc1ccco1", "note": "(stereo not drawn)", "inhibition": "0.461%"}, {"smiles": "CC(NC(=O)c1cccc(Nc2nc3ccccc3n3nnnc23)c1)c1ccccc1", "note": "(stereo not drawn)", "inhibition": "15%"}, {"smiles": "O=C(CSc1nc2c(c(=O)[nH]1)CCC2)Nc1cccc(O)c1", "inhibition": "-14.4%"}, {"smiles": "COc1ccc(OC)c(NC(=O)Nc2cccc(OCc3cc(=O)n4cc(C)ccc4n3)c2)c1", "inhibition": "-15.2%"}, {"smiles": "COc1ccc(Cn2nnnc2CN2CCc3ccccc3C2)cc1", "inhibition": "active: 34.4%"}, {"smiles": "CCN1CCN(c2oc(-c3ccc(COc4ccc(OC)cc4)o3)nc2C#N)CC1", "inhibition": "-0.48%"}, {"smiles": "CC(C)(C)OC(=O)N1CCC(c2c(C(=O)NCCN3CCOCC3)cnn2-c2cccc(F)c2)CC1", "inhibition": "6.02%"}, {"smiles": "CC(=O)c1ccc(N2C(=O)N(Cc3ccc(F)cc3)c3ccccc3S2(=O)=O)cc1", "inhibition": "-5.22%"}, {"smiles": "CCN(CC)S(=O)(=O)c1nnc(NC(=O)COc2ccccc2)s1", "inhibition": "13.5%"}, {"smiles": "COc1ccc(C2(CNC(=O)C(=O)Nc3ccc(C)c(Cl)c3)CCCC2)cc1OC", "inhibition": "11%"}, {"smiles": "Clc1cccc(-n2ncc3c(NCCC4=CCCCC4)ncnc32)c1", "inhibition": "-0.326%"}, {"smiles": "COc1ccc(OC)c(C(=O)CN2C(=O)N(c3cc(C)cc(C)c3)S(=O)(=O)c3ccccc32)c1", "inhibition": "1.01%"}, {"smiles": "CCCCCN1C(C(=O)c2ccccc2)=C(NC(=O)c2ccc(OC)c(OC)c2)c2ccccc2S1(=O)=O", "inhibition": "-7.57%"}, {"smiles": "COC(=O)c1ccccc1NC(=O)CSc1cc(-c2ccccc2)nc(C)n1", "inhibition": "-0.524%"}, {"smiles": "Cc1ccc(CNC(=O)CCC(=O)n2ncc3cc(C)ccc32)cc1", "inhibition": "active: 46.5%"}, {"smiles": "COc1ccc(OC)c(CN2CCN(C(=O)c3cccs3)CC2)c1", "inhibition": "active: 71%"}, {"smiles": "O=C(C1CCCN(S(=O)(=O)c2cccc3nonc23)C1)N1CCN(c2ccccc2F)CC1", "note": "(stereo not drawn)", "inhibition": "21.9%"}, {"smiles": "COc1ccc(NC(=O)N2CCC(CN3CCCC3)CC2)c(OC)c1", "inhibition": "-4.29%"}, {"smiles": "O=C(CCn1c(=O)c2cccn2c2ccc(F)cc21)NCCc1ccc(Cl)cc1", "inhibition": "13.6%"}, {"smiles": "Clc1ccc(-c2ccc(CNCCSc3nnnn3-c3ccccc3)o2)cc1", "inhibition": "5.78%"}, {"smiles": "Cc1ccc2c(c1)-c1onc(C(=O)N3CCN(c4cc(C)ccc4C)CC3)c1CO2", "inhibition": "9.61%"}, {"smiles": "Cc1cc(C)n(-c2nc3cc(Cl)ccc3nc2N2CCN(c3cccc(C)c3C)CC2)n1", "inhibition": "-3.68%"}, {"smiles": "Cc1ccc(CCNC(=O)Cn2ncc3c([nH]c4ccccc43)c2=O)cc1", "inhibition": "-5.62%"}, {"smiles": "COc1ccccc1CNS(=O)(=O)c1c(C(=O)N2CCC(C)CC2)c(C)n(C)c1C", "inhibition": "8.92%"}, {"smiles": "COc1ccc(N2CCN(c3ncnc4c3nc3n4CCCCC3)CC2)cc1", "inhibition": "-15.9%"}, {"smiles": "Cc1ccc(S(=O)(=O)c2cn(C)c3cc(N4CCOCC4)c(F)cc3c2=O)c(C)c1", "inhibition": "7.07%"}, {"smiles": "Cc1ccc(CCNC(=O)C2COc3ccccc3C2)cc1", "note": "(stereo not drawn)", "inhibition": "9.67%"}, {"smiles": "Cc1ccc(Cl)cc1-n1c(=O)c2sc3ccccc3c2n(CC(=O)NC2CCCC2)c1=O", "inhibition": "-19.6%"}, {"smiles": "Cc1ccc2nc(SCC(=O)c3ccc(Cl)cc3)nc(=O)n2c1", "inhibition": "active: 32.1%"}, {"smiles": "Cc1ccc(S(=O)(=O)c2cn(C)c3cc(N4CCCCC4)c(F)cc3c2=O)cc1", "inhibition": "7.97%"}, {"smiles": "COc1ccc(C)cc1NC(=O)N1CCC(CN2CCC(C)CC2)CC1", "inhibition": "-1.34%"}, {"smiles": "CCc1c(C)c2ccc(O)c(CN3CCN(c4ccccc4)CC3)c2oc1=O", "inhibition": "1.61%"}, {"smiles": "CCN1CCN(c2cc(C)c3cc(NC(=O)c4ccccc4F)ccc3n2)CC1", "inhibition": "-19.3%"}, {"smiles": "CCOC(=O)c1c(NC(=O)COc2ccc(Cl)cc2C)sc(C(C)=O)c1C", "inhibition": "1.73%"}, {"smiles": "Cc1ccc(N2CCN(c3nc4c(S(=O)(=O)c5ccc(C)c(C)c5)nnn4c4ccccc34)CC2)c(C)c1", "inhibition": "8.34%"}, {"smiles": "CCc1cccc(C)c1NC(=O)CN(C)S(=O)(=O)c1cccc2nsnc12", "inhibition": "9.57%"}, {"smiles": "Cc1c(C(=O)N(Cc2ccc(N(C)C)cc2)CC2CCCO2)oc2ccc(Br)cc12", "note": "(stereo not drawn)", "inhibition": "-11.4%"}]}]}
